Assay results from the supplement of paper PMC9446081.
Out of some 39,000 compounds screened, about 220 (0.56%) showed activity. Some of the results follow.

test system: Escherichia coli K-12 BW25113; experiment: relative growth (OD600 normalised to plate interquartile mean) (fraction); higher = less growth inhibition, active = 0.2 or less; conditions: 50 µM; LB; incubation time: overnight (16-24 h)
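Further: static incubation at 37 °C against the wild-type strain, values averaged over two biological replicates.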

Row | SMILES | relative growth
1 | Cn1nnnc1SCC(=O)NC(C)(C)C | inactive: 1.02
2 | O=C(c1cccnc1)N1C[C@H]2[C@@H](c3ccccc31)[C@H](CO)N2C(=O)CN1CCOCC1 | inactive: 1.01
3 | C[C@@H]1CN([C@@H](C)CO)C(=O)c2cc(NS(C)(=O)=O)ccc2O[C@@H](C)CCCCO[C@H]1CN(C)S(=O)(=O)c1ccc(F)cc1 | inactive: 1.02
4 | CC(C)(O)C#Cc1ccc([C@H]2[C@H](CO)N3CCCCN(S(C)(=O)=O)C[C@@H]23)cc1 | inactive: 1.03
5 | C[C@H]1CN([C@@H](C)CO)C(=O)Cc2cc(NC(=O)NC3CCCCC3)ccc2O[C@@H]1CN(C)Cc1ccc(-c2ccccc2)cc1 | inactive: 0.984
6 | C[C@@H]1CCCCO[C@@H](CN(C)S(=O)(=O)c2ccc(F)cc2)[C@@H](C)CN([C@H](C)CO)C(=O)c2cc(NS(=O)(=O)c3cn(C)cn3)ccc2O1 | inactive: 1.01
7 | COCC#Cc1ccc2c(c1)O[C@@H](CN(C)C(=O)C1CCCCC1)[C@H](C)CN([C@H](C)CO)S2(=O)=O | inactive: 0.988
8 | COc1ccc(NC(=O)N(C)C[C@H]2Oc3ccc(NC(=O)CCCCCC(=O)Nc4ccccc4N)cc3CC(=O)N([C@H](C)CO)C[C@H]2C)cc1 | inactive: 0.96
9 | CCOC(=O)[C@H]1C/C=C/C[C@H](C(=O)OCC)C(=O)O[C@H]2[C@@H](OC)O[C@H](CO)[C@@H](OC(=O)Nc3ccc4c(c3)OCO4)[C@@H]2OC1=O | inactive: 1.05
10 | C[C@@H]1CN([C@H](C)CO)C(=O)c2cc(NS(=O)(=O)c3cccs3)ccc2O[C@@H](C)CCCCO[C@H]1CN(C)Cc1ccc(C(F)(F)F)cc1 | inactive: 1.01
11 | Cc1noc(C)c1NC(=O)N(C)C[C@@H]1Oc2c(NS(=O)(=O)c3cn(C)cn3)cccc2C(=O)N([C@@H](C)CO)C[C@H]1C | inactive: 0.988
12 | C[C@H]1CN([C@@H](C)CO)C(=O)Cc2cc(NC(=O)NC3CCCCC3)ccc2O[C@H]1CN(C)Cc1ccc(Oc2ccccc2)cc1 | inactive: 1.03
13 | C[C@H](CO)N1C[C@H](C)[C@@H](CN(C)C(=O)NC2CCCCC2)OCCCC[C@H](C)Oc2ccc(NC(=O)Nc3cccc4ccccc34)cc2C1=O | inactive: 1.02
14 | O=C(C[C@H]1C[C@@H]2c3cc(NC(=O)C4CCOCC4)ccc3O[C@@H]2[C@@H](CO)O1)NCCN1CCCCC1 | inactive: 1.01
15 | C[C@H]1CN([C@@H](C)CO)C(=O)c2cc(NC(=O)Nc3cccc4ccccc34)ccc2O[C@H]1CN(C)C(=O)Nc1cccc2ccccc12 | inactive: 1.02
16 | C[C@@H]1CCCCO[C@@H](CN(C)C(=O)Nc2ccc(F)cc2)[C@@H](C)CN([C@@H](C)CO)C(=O)c2cc(NC(=O)Cc3ccccc3)ccc2O1 | inactive: 1.05
17 | COc1ccc(S(=O)(=O)N(C)C[C@H]2Oc3ccc(NC(=O)NC(C)C)cc3C(=O)N([C@H](C)CO)C[C@H]2C)cc1 | inactive: 0.99
18 | C[C@H]1[C@@H](c2ccccc2)OC(=O)CC[C@H](O)[C@@H](O)C[C@@H](CC(=O)NCc2ccc(Cl)cc2)C(=O)N1C | inactive: 0.984
19 | CCCCCCC#C[Si](O[C@H](c1ccccc1)c1cn([C@H](C)c2ccccc2)nn1)(C(C)C)C(C)C | inactive: 0.983
20 | O=C(/C=C/c1cccc(-c2cn(CC(=O)N3CCC4(CC3)C(=O)NCN4c3ccccc3)nn2)c1)NO | inactive: 1

Row | SMILES | relative growth
21 | Cc1noc(C)c1NC(=O)N[C@H]1C=C[C@@H](CC(=O)N2CCN(C)CC2)O[C@@H]1CO | inactive: 0.991
22 | Cc1noc(C)c1NC(=O)Nc1ccc2c(c1)C(=O)N([C@H](C)CO)C[C@@H](C)[C@@H](CN(C)S(=O)(=O)c1ccccc1)OCCCC[C@H](C)O2 | inactive: 1.01
23 | COc1cccc(S(=O)(=O)Nc2ccc3c(c2)OC[C@@H](C)N(C(=O)Cc2cccnc2)C[C@H](C)[C@@H](OC)CN(C)C3=O)c1 | inactive: 0.916
24 | C[C@H](O)C#Cc1ccc2c(c1)O[C@@H](CN(C)C(=O)c1ccccc1)[C@H](C)CN([C@@H](C)CO)S2(=O)=O | inactive: 0.99
25 | C[C@@H]1CN([C@@H](C)CO)C(=O)c2cc(N(C)C)ccc2O[C@@H]1CN(C)S(=O)(=O)c1ccc(Cl)cc1 | inactive: 1.03
26 | C[C@H](CO)N1C[C@H](C)[C@@H](CN(C)S(=O)(=O)c2ccc(Cl)cc2)OCCCC[C@H](C)Oc2ccc(NC(=O)C3CCCCC3)cc2C1=O | inactive: 1.03
27 | C[C@@H]1CN([C@H](C)CO)C(=O)Cc2cc(NC(=O)CCC(F)(F)F)ccc2O[C@@H]1CN(C)C(=O)Nc1ccc(C(F)(F)F)cc1 | inactive: 1.03
28 | Cc1noc(C)c1NC(=O)Nc1ccc2c(c1)CC(=O)N([C@H](C)CO)C[C@@H](C)[C@H](CN(C)Cc1ccc(C(=O)Nc3ccccc3N)cc1)O2 | inactive: 0.993
29 | N#CCC12CC3CC(CC(C3)C1)C2 | inactive: 0.984
30 | C[C@@H]1CN([C@@H](C)CO)C(=O)c2cc(NC(=O)CCN3CCOCC3)ccc2O[C@@H]1CN(C)S(=O)(=O)c1ccc(Cl)cc1 | inactive: 1.01
31 | CC(C)NC(=O)Nc1ccc2c(c1)C(=O)N([C@@H](C)CO)C[C@@H](C)[C@H](CN(C)Cc1ccc3c(c1)OCO3)O2 | inactive: 0.992
32 | C[C@@H]1CN([C@H](C)CO)C(=O)c2cccc(NC(=O)Nc3ccccc3)c2O[C@H]1CN(C)CC1CCCCC1 | inactive: 0.93
33 | C[C@H]1CN([C@@H](C)CO)C(=O)c2cccc(NC(=O)Nc3ccc(F)cc3)c2O[C@@H]1CN(C)S(=O)(=O)c1cn(C)cn1 | inactive: 1.02
34 | CC(=O)N1[C@@H]2Cn3c(ccc(-c4ccccc4)c3=O)[C@H]1[C@@H](C(=O)NCCCN1CCOCC1)[C@@H]2CO | inactive: 0.99
35 | CN1CCN(CCCN2c3ccccc3Sc3ccc(C(F)(F)F)cc32)CC1.Cl.Cl | inactive: 1.02
36 | COc1ccc(CN(C)C[C@@H]2Oc3c(NC(=O)CCCCCC(=O)Nc4ccccc4N)cccc3C(=O)N([C@H](C)CO)C[C@H]2C)cc1 | inactive: 0.996
37 | CO[C@@H](CN(C)C(=O)C1CCOCC1)[C@H](C)CN(C(=O)Nc1ccc(C(F)(F)F)cc1)[C@@H](C)CO | inactive: 0.955
38 | CC(C)N1C[C@@H](C)[C@H](CN(C)Cc2ccc(Oc3ccccc3)cc2)Oc2c(C(=O)O)cccc2C1=O | inactive: 1
39 | CCCCCCCC(=O)N[C@H](CN1CCCC1)[C@H](O)c1ccc2c(c1)OCCO2 | inactive: 1.01
40 | COC(=O)C1=C(C)NC(C)=C(C(=O)OC)C1c1ccccc1[N+](=O)[O-] | inactive: 0.912

Row | SMILES | relative growth
41 | C[C@@H]1CN([C@@H](C)CO)C(=O)c2cc(NC(=O)c3ccncc3)ccc2O[C@H]1CN(C)S(=O)(=O)c1cn(C)cn1 | inactive: 1.03
42 | COc1ccc(S(=O)(=O)N(C)C[C@H]2Oc3c(NS(=O)(=O)c4c(C)noc4C)cccc3C(=O)N([C@H](C)CO)C[C@H]2C)cc1 | inactive: 0.997
43 | COC12C(COC(N)=O)C3=C(C(=O)C(C)=C(N)C3=O)N1CC1NC12 (centres undefined) | active: 0.0503
44 | COc1ccc(S(=O)(=O)Nc2ccc3c(c2)C(=O)N([C@@H](C)CO)C[C@H](C)[C@H](CN(C)CC2CC2)O3)cc1 | inactive: 0.991
45 | Cc1cc(C(=O)Nc2cccc3c2O[C@H](CN(C)Cc2ccc(Oc4ccccc4)cc2)[C@H](C)CN([C@H](C)CO)C3=O)n(C)n1 | inactive: 0.984
46 | C[C@H](CO)N1C[C@H](C)[C@@H](CN(C)C(=O)Nc2ccc3c(c2)OCO3)Oc2ncc(-c3ccncc3)cc2C1=O | inactive: 1.01
47 | CC/N=C1\S[C@@H](CC(=O)NC)C(=O)N1CC | inactive: 1.01
48 | Cc1noc(C)c1S(=O)(=O)N(C)C[C@H]1Oc2ccc(NC(=O)CCCN(C)C)cc2CC(=O)N([C@H](C)CO)C[C@@H]1C | inactive: 0.976
49 | C[C@@H]1CCCCO[C@H](CN(C)S(=O)(=O)c2ccc(F)cc2)[C@H](C)CN([C@@H](C)CO)C(=O)c2cc(NC(=O)NC3CCCCC3)ccc2O1 | inactive: 1.01
50 | CC(=O)OC[C@H]1OC[C@H](OC(C)=O)[C@@H](OC(C)=O)[C@H]1OC(C)=O | inactive: 0.972
51 | CC(C)NC(=O)Nc1ccc2c(c1)C(=O)N([C@@H](C)CO)C[C@@H](C)[C@H](CN(C)Cc1ccccc1)OCCCC[C@H](C)O2 | inactive: 1.02
52 | CC(=O)OC1CC(OC(C)=O)C2(C)C(CC(OC(C)=O)C3(C)C4=CC(=O)OC(c5ccoc5)C4(C)CCC32)C1(C)C (centres undefined) | inactive: 0.992
53 | O=C(O)C1=C[C@@H](O)[C@H](O)[C@H](O)C1 | inactive: 1.01
54 | C[C@@H]1CCCCO[C@H](CN(C)C(=O)Nc2cccc3ccccc23)[C@@H](C)CN([C@@H](C)CO)C(=O)c2cc(N(C)C)ccc2O1 | inactive: 1
55 | Cc1noc(C)c1S(=O)(=O)N(C)C[C@@H]1Oc2ccc(NS(C)(=O)=O)cc2CC(=O)N([C@H](C)CO)C[C@@H]1C | inactive: 1.06
56 | C[C@@H]1CCCCO[C@@H](CN(C)C(=O)Nc2ccc3c(c2)OCO3)[C@@H](C)CN([C@H](C)CO)C(=O)c2cc(NC(=O)Nc3ccc(F)cc3)ccc2O1 | inactive: 1.03
57 | O=C(C[C@@H]1CC[C@@H]2[C@H](COC[C@@H](O)CN2Cc2cccc(C(F)(F)F)c2)O1)NCCc1ccncc1 | inactive: 0.93
58 | COc1ccc(S(=O)(=O)Nc2ccc3c(c2)CC(=O)N([C@H](C)CO)C[C@H](C)[C@H](CN(C)S(=O)(=O)c2ccccc2)O3)cc1 | inactive: 1
59 | C[C@H](CO)N1C[C@H](C)[C@@H](CN(C)C(=O)c2cc(-c3ccccc3)on2)OCc2cn(nn2)CCCC1=O | inactive: 0.997
